In the supplement of paper PMC8813932:
Counter-ions that a name gives are not always drawn. ± gives the standard deviation of the averaged measurements. The list shows a part of the results. Repeats are few or missing, and single values can be far off.

How the values were obtained:
Experiment in all cases: log2 surviving fraction relative to plate median (drug vs vehicle, or drug+dl922-947 vs dl922-947 alone); ovarian cancer lines: OVCAR4 is platinum-sensitive while Ov4Cis resists cisplatin and Ov4Carbo carboplatin; higher = more cell survival
Settings in all cases: compound concentration: 10 uM, 192 h
[1] = tested on: OVCAR4
[2] = tested on: Ov4Carbo
[3] = tested on: Ov4Cis
[4] = dl922-947 oncolytic adenovirus co-treatment: MOI 10
[5] = dl922-947 oncolytic adenovirus co-treatment: none

Row | SMILES | log2 surviving fraction [1, 4] | log2 surviving fraction [1, 5] | log2 surviving fraction [2, 4] | log2 surviving fraction [2, 5] | log2 surviving fraction [3, 4] | log2 surviving fraction [3, 5]
1 | N#CC[C@H](C1CCCC1)n1cc(-c2ncnc3[nH]ccc23)cn1 | -0.0833 ± 0.23 | 0.461 ± 0.032 | -0.151 | -0.0662 | -0.154 | 0.251
2 | CN(C)CCc1c[nH]c2ccc(CS(=O)(=O)N3CCCC3)cc12 [Almotriptan malate (Axert)] | -0.261 ± 0.35 | 0.636 ± 1 | -0.522 | 0.233 | 0.00403 | -0.657
3 | CCCc1nc(C)c2c(=O)nc(-c3cc(S(=O)(=O)N4CCN(CC)CC4)ccc3OCC)[nH]n12 [Vardenafil (Vivanza)] | -0.185 ± 0.27 | 0.183 ± 0.25 | -0.563 | -0.305 | -0.486 | -0.691
4 | CNC(=O)c1cc(Oc2ccc(NC(=O)Nc3ccc(Cl)c(C(F)(F)F)c3)c(F)c2)ccn1 [Regorafenib (BAY 73-4506)] | -0.205 ± 0.56 | -0.819 ± 2.8 | -8.72 | 0.0983 | 0.254 | -1.42
5 | C[C@H]1C[C@@H]2[C@H]([C@@H](O)C[C@@]3(C)[C@H]2CC[C@]3(O)C(=O)CO)[C@@]2(C)C=CC(=O)C=C12 [Methylprednisolone] | 0.388 ± 0.98 | -0.233 ± 0.11 | 1.5 | 1.08 | 0.679 | -1.14
6 | C=C1CC[C@@]2(O)[C@H]3Cc4ccc(O)c5c4[C@@]2(CCN3CC2CC2)[C@H]1O5 [Nalmefene HCl] | 0.664 ± 0.097 | 0.699 ± 0.79 | 0.808 | 1.06 | 0.602 | 0.472
7 | CC(=O)Oc1cc(C(F)(F)F)ccc1C(=O)O [Triflusal] | -0.456 ± 0.33 | 0.281 ± 0.27 | -0.327 | -0.455 | -0.12 | -0.151
8 | COc1ccc(OC)c(C(O)C(C)N)c1 (stereo unspecified) [Methoxamine HCl] | 0.383 ± 1.1 | -3.11 ± 4.9 | 0.34 | 0.687 | 0.183 | -0.327
9 | C[C@H](N)[C@H](O)c1cccc(O)c1 [Metaraminol Bitartrate] | -0.353 ± 2.2 | -0.201 ± 1 | 0.469 | 1.39 | -1.33 | -0.762
10 | Nc1nc(F)nc2c1ncn2[C@@H]1O[C@H](CO)[C@@H](O)[C@@H]1O [Fludarabine (Fludara)] | -0.54 ± 1.6 | -1.36 ± 0.2 | -0.893 | -2.01 | -0.195 | 0.555
11 | COc1ccc2c(c1)C(=O)N(CCc1ccc(S(=O)(=O)NC(=O)NC3CCCCC3)cc1)C(=O)C2(C)C [Gliquidone] | 0.217 ± 0.72 | -0.481 ± 0.12 | 0.137 | -0.736 | 0.375 | -0.0965
12 | CC(C)Cc1ccc(C(C)C(=O)O)cc1 (stereo unspecified) [Ibuprofen Lysine (NeoProfen)] | -0.173 ± 0.37 | -0.11 ± 0.11 | 0.491 | -0.214 | 0.456 | -0.457
13 | CCOC(=O)C1=C(C)NC(C)=C(C(=O)OC)C1c1cccc([N+](=O)[O-])c1 (stereo unspecified) [Nitrendipine] | 0.173 ± 0.38 | 0.171 ± 0.13 | -0.15 | -0.0634 | -0.211 | -0.356
14 | CC(=O)OCC(CCn1cnc2cnc(N)nc21)COC(C)=O [Famciclovir (Famvir)] | 1.19 ± 0.4 | -0.00534 ± 0.43 | 0.201 | 0.922 | 0.609 | 0.202
15 | N#C[C@@H]1C[C@@H]2C[C@@H]2N1C(=O)[C@@H](N)C12CC3CC(CC(O)(C3)C1)C2 | 0.369 ± 1.1 | 0.45 ± 0.0093 | 0.0848 | 0.513 | -0.154 | 0.0291
16 | NS(=O)(=O)c1cc(Cl)c(Cl)c(S(N)(=O)=O)c1 [Dichlorphenamide (Diclofenamide)] | 0.271 ± 0.16 | -0.0341 ± 0.46 | 1.4 | 0.198 | 0.0736 | -0.514
17 | CC(C)[C@H](N)C(=O)OCCOCn1cnc2c(=O)nc(N)[nH]c21 [Valaciclovir HCl] | -0.219 ± 0.51 | 0.327 ± 0.42 | 0.969 | -0.916 | 0.499 | -0.092
18 | C[N+]1(C)CCCC(OC(=O)C(O)(c2ccccc2)c2ccccc2)C1 (stereo unspecified) [Mepenzolate Bromide] | -0.0709 ± 0.55 | 0.428 ± 0.45 | -1.04 | -0.172 | 0.185 | -0.154
19 | O=C1c2cccc3c2[C@H](CCC3)CN1[C@@H]1CN2CCC1CC2 [Palonosetron HCl] | -0.557 ± 1.2 | -0.7794 ± 0.0057 | -1.56 | -0.982 | -0.289 | -0.899
20 | CC(C)[C@H](N)C(=O)OCC(CO)OCn1cnc2c(=O)nc(N)[nH]c21 (stereo partly specified) [valganciclovir hydrochloride] | 0.0267 ± 0.1 | -0.0617 ± 0.3 | 0.67 | 0.582 | 0.0834 | 0.396
21 | Cc1cc(C)nc(NS(=O)(=O)c2ccc(N)cc2)n1 [Sulfamethazine] | 0.662 ± 0.077 | -0.122 ± 0.43 | 0.715 | -0.77 | 0.371 | 0.237
22 | NC(CO)(CO)CO [Trometamol] | 0.2 ± 0.62 | -0.287 ± 0.66 | 1.97 | 0.239 | 0.203 | -0.491
23 | c1ccc(-c2ccc(C(c3ccccc3)n3ccnc3)cc2)cc1 (stereo unspecified) [Bifonazole] | -0.76 ± 0.026 | -1.06 ± 0.28 | -0.565 | -1.72 | -0.122 | -0.101

Row | SMILES | log2 surviving fraction [1, 4] | log2 surviving fraction [1, 5] | log2 surviving fraction [2, 4] | log2 surviving fraction [2, 5] | log2 surviving fraction [3, 4] | log2 surviving fraction [3, 5]
24 | CCCN[C@H]1CCc2nc(N)sc2C1 [Pramipexole (Mirapex)] | 1.31 ± 1 | 0.817 ± 0.6 | 1.47 | 1.61 | 0.281 | 0.84
25 | CNC[C@H](O)[C@@H](O)[C@H](O)[C@H](O)CO [Meglumine] | 0.951 ± 0.29 | 0.146 ± 0.54 | 0.0664 | -0.375 | 0.516 | -0.0011
26 | c1ccc2c(c1)CCCC2C1=NCCN1 (stereo unspecified) [tetrahydrozoline hydrochloride] | 0.14 ± 0.46 | 0.461 ± 0.34 | -0.343 | 0.595 | 0.22 | -4.14
27 | CC(=O)Oc1ccccc1C(=O)Nc1ncc([N+](=O)[O-])s1 [Nitazoxanide (Alinia, Annita)] | -0.885 ± 0.13 | -0.687 ± 1.3 | 1.13 | -0.268 | 0.266 | -0.754
28 | NC(=O)c1cn(Cc2c(F)cccc2F)nn1 [Rufinamide (Banzel)] | 1.46 ± 0.74 | 4.3 ± 2.7 | 1.66 | 2.38 | 0.97 | 1.84
29 | Cc1noc(NS(=O)(=O)c2ccc(N)cc2)c1C [Sulfisoxazole] | -0.923 ± 1.5 | 0.309 ± 0.47 | -0.00608 | -0.983 | 1.05 | 1.09
30 | C[C@H]1c2cccc(O)c2C(=O)C2=C(O)[C@]3(O)C(=O)C(C(N)=O)=C(O)[C@@H](N(C)C)[C@@H]3[C@@H](O)[C@@H]21 [Doxycycline HCl] | -0.0169 ± 0.2 | 0.00425 ± 0.92 | -0.516 | 0.000826 | 0.0233 | -0.702
31 | CCCN(CCC)S(=O)(=O)c1ccc(C(=O)O)cc1 [Probenecid (Benemid)] | 0.539 ± 0.9 | 0.65 ± 0.34 | 0.294 | 2.13 | 0.324 | 0.753
32 | O=S(=O)(F)Cc1ccccc1 [PMSF (Phenylmethylsulfonyl Fluoride)] | -0.384 ± 0.46 | 0.621 ± 0.57 | -0.686 | -0.722 | 0.136 | -1.11
33 | CSc1ccc2c(c1)N(CCC1CCCCN1C)c1ccccc1S2 (stereo unspecified) [Thioridazine HCl] | -7.62 ± 1.1 | -4.2 ± 7 | -8.11 | -10.5 | -8.19 | -13.2
34 | CC(=O)Oc1ccccc1C(=O)O [Aspirin (Acetylsalicylic acid)] | -0.988 ± 0.3 | -1.01 ± 0.29 | -0.648 | 0.338 | -1.15 | -3.11
35 | CC(CCc1ccc(O)cc1)NCC(O)c1ccc(O)cc1 (stereo unspecified) [Ractopamine HCl] | -0.0182 ± 0.014 | -0.552 ± 0.53 | -0.944 | -0.345 | -0.481 | -0.347
36 | O=C(c1ccc(OCCN2CCCCC2)cc1)c1c(-c2ccc(O)cc2)sc2cc(O)ccc12 [Evista (Raloxifene Hydrochloride)] | -1.34 ± 0.12 | -1.18 ± 0.77 | -4.18 | -3.57 | -2.45 | -3.99
37 | OC(CCN1CCCCC1)(c1ccccc1)c1ccccc1 [Pridinol Methanesulfonate] | -0.196 ± 1 | 0.302 ± 0.43 | -0.924 | 0.276 | 0.955 | -0.901
38 | O=c1[nH]c(=O)n(C2CCCO2)cc1F (stereo unspecified) [Ftorafur] | 0.257 ± 0.91 | -1.15 ± 1.3 | -0.324 | 0.187 | 0.232 | 0.581
39 | CC(C(=O)O)c1ccc2c(c1)Cc1cccnc1O2 (stereo unspecified) [Pranoprofen] | -0.557 ± 0.87 | 0.491 ± 0.3 | 0.709 | -0.397 | -0.352 | 0.0834
40 | CC(C)CC(N)=O [Isovaleramide] | 0.828 ± 0.028 | 0.179 ± 1.3 | 0.675 | -1.99 | 1.04 | 0.823
41 | COc1cc2/c(=N/c3ccc(Br)cc3F)nc[nH]c2cc1OCC1CCN(C)CC1 [Vandetanib (Zactima)] | -0.337 ± 0.69 | -5.12 ± 3.7 | -1.48 | -4.9 | -0.167 | -0.411
42 | CC1=NN(c2ccccc2)C(=O)C1 [Edaravone (MCI-186)] | 0.23 ± 0.12 | -0.437 ± 0.27 | -0.656 | -0.13 | -0.125 | -0.243
43 | NC[C@H](CC(=O)O)c1ccc(Cl)cc1 [(R)-baclofen] | 0.811 ± 0.79 | 0.116 ± 0.64 | 0.461 | 0.813 | -0.564 | 1.28
44 | OC[C@H]1O[C@H](O[C@]2(CCl)O[C@H](CCl)[C@@H](O)[C@@H]2O)[C@H](O)[C@@H](O)[C@H]1Cl [Sucralose] | -0.0476 ± 0.24 | -0.237 ± 0.057 | -0.854 | -0.307 | 0.652 | -0.446
45 | CCN(CC)C(=O)/C(C#N)=C/c1cc(O)c(O)c([N+](=O)[O-])c1 [Entacapone] | 0.326 ± 1.6 | -0.3 ± 0.5 | -0.338 | 0.146 | -0.519 | -2.06
46 | COc1cc2nccc(Oc3ccc(NC(=O)C4(C(=O)Nc5ccc(F)cc5)CC4)cc3)c2cc1OC [XL-184 (Cabozantinib)] | -0.393 ± 3.1 | -2.53 ± 3.8 | 0.618 | 1.26 | -3.3 | -4.21
